Experimental data taken from the supplement of paper PMC4466236.
The full ranking holds about 33,000 sequences; the median of “E-score (dimensionless, -0.5 to 0.5)” is about -0.058, and the highest 2% start at about 0.35. This is one part of the list.

System: MvaT
Experiment: PBM 8-mer E-score (mean of HK and ME arrays) (E-score (dimensionless, -0.5 to 0.5)); higher = stronger relative binding preference; most listed sequences are background and not binding sites
How it was run: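 Full-length P. aeruginosa MvaT carrying an N-terminal glutathione S-transferase tag was tested by protein binding microarray following a previously described protocol. Two universal double-stranded 60-mer arrays, ME and HK, were used, each with a constant 25-mer primer region and a variable 35-mer region covering all 8-mers. The rank-based E-score is the mean of the two arrays, parsed with a custom script. Its range runs from -0.5 to 0.5 for each 8-mer.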

| Sequence | PBM 8-mer E-score |
| --- | --- |
| ACAATATG | 0.262 |
| ACATCACC | -0.215 |
| TCACAGAA | -0.0614 |
| GACAGCCA | -0.0601 |
| CTTGAACC | -0.162 |
| ACAAAATA | 0.39 |
| ACTCTAAC | 0.11 |
| GATGAATC | -0.0617 |
| CGTGTAGC | -0.186 |
| CCGAACAG | -0.0091 |
| CTCGCGGC | -0.259 |
| AGCCGCCC | -0.214 |
| CTATACTC | -0.0354 |
| AGTGAGTG | -0.0324 |
| CGATTCCC | -0.0911 |
| AATTCTTG | 0.144 |
| AGTCGCAC | -0.0455 |
| ATCTGGGC | -0.238 |
| ATTCTGCA | 0.1 |
| GCTCCGAC | -0.151 |
| ACCTAAAG | -0.0632 |
| GTCAAGAC | -0.0667 |

| Sequence | PBM 8-mer E-score |
| --- | --- |
| CCAAACCG | -0.101 |
| AGACGTTC | -0.262 |
| ATGCGCCA | -0.0242 |
| ACGGTTCC | -0.202 |
| CTTATCGC | 0.049 |
| TGGCACCA | -0.0973 |
| GACCGCAC | -0.231 |
| AGCGCGAT | -0.196 |
| GCAGTCCA | -0.155 |
| ATTGTGGG | 0.052 |
| CGGACGAC | -0.293 |
| CAAGATAA | 0.21 |
| ATATGTAA | 0.309 |
| ATAATGGG | 0.229 |
| AGACCAGC | -0.125 |
| ACTCCGTA | -0.079 |
| CAAGTTCG | 0.183 |
| ACGGAACT | -0.0238 |
| AGAGATCA | -0.16 |
| CTGTAATC | 0.0848 |
| ATCGAAAT | 0.228 |
| TATCAGCA | 0.0546 |

| Sequence | PBM 8-mer E-score |
| --- | --- |
| CAAGATGA | -0.12 |
| ACCCAAGG | -0.274 |
| TAACGGGA | 0.121 |
| ATCGACTA | -0.0383 |
| GACCCATA | -0.0337 |
| GATAATGA | 0.225 |
| AACCGTTA | 0.132 |
| GTGCAATA | 0.159 |
| AAATGCGC | 0.0866 |
| GGTCATCA | -0.029 |
| ACTCACGC | -0.108 |
| CATCGTAA | -0.00964 |
| ACTCTATA | 0.231 |
| AGGTGTCC | -0.202 |
| AAGAAAGT | 0.295 |
| TCCTTTCA | -0.123 |
| AGTAAAGC | -0.0688 |
| GAGCTACA | -0.0868 |
| CATATATA | 0.451 |
| AGGGACCC | -0.282 |
| CCTGAGAC | -0.283 |
| ACGATCGG | -0.112 |

| Sequence | PBM 8-mer E-score |
| --- | --- |
| CGCCGTTC | -0.0974 |
| AGACAATG | 0.12 |
| AACCGCCG | -0.233 |
| AACAGGAC | 0.00152 |
| AGTAAGCC | -0.0729 |
| AAGGTCTG | -0.162 |
| ATTTCGCA | 0.216 |
| CCAATTCG | -0.0984 |
| CCCAAAGG | -0.28 |
| CTCACATC | -0.279 |
| AGATAAGC | 0.0228 |
| CGTAAGTA | 0.0963 |
| AACTCTAC | 0.118 |
| ACAAGTAG | 0.202 |
| AGGGAGAA | -0.164 |
| CAACCAAA | 0.105 |
| CCTCTTAA | 0.0626 |
| CATTGCTA | -0.049 |
| CCACTACA | 0.0434 |
| CCTCGTAC | -0.108 |
